Laboratory results as given in the supplement of paper PMC9174493.
Some of the results follow. Single values of this set are uncertain. Values with irradiation are relative to irradiated vehicle.

Columns and labels:
A549-Dual [1] = assay: NF-kB reporter (SEAP) activity, viability-corrected, relative to vehicle (fold change vs vehicle); higher = more activation of STING-IRF / NF-kB immune response reporter
A549-Dual [2] = assay: ISRE reporter (Lucia luciferase) activity, viability-corrected, relative to vehicle (fold change vs vehicle); higher = more activation of STING-IRF / NF-kB immune response reporter
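Wherever NF-kB reporter (SEAP) activity, viability-corrected, relative to vehicle is given: viability correction based on the alamar blue assay, with concentrations leaving 10% survival or less dropped.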

Structure (SMILES) | NF-kB reporter (A549-Dual [1]; 0.1 µM, irradiation: 8 Gy/4 fr) | NF-kB reporter (A549-Dual [1]; 0.1 µM, irradiation: none) | NF-kB reporter (A549-Dual [1]; 0.3 µM, irradiation: 8 Gy/4 fr) | NF-kB reporter (A549-Dual [1]; 0.3 µM, irradiation: none) | NF-kB reporter (A549-Dual [1]; 1 µM, irradiation: 8 Gy/4 fr) | NF-kB reporter (A549-Dual [1]; 1 µM, irradiation: none) | NF-kB reporter (A549-Dual [1]; 3 µM, irradiation: 8 Gy/4 fr) | NF-kB reporter (A549-Dual [1]; 3 µM, irradiation: none) | NF-kB reporter (A549-Dual [1]; 10 µM, irradiation: 8 Gy/4 fr) | NF-kB reporter (A549-Dual [1]; 10 µM, irradiation: none) | ISRE reporter (A549-Dual [2]; 0.1 µM, irradiation: 8 Gy/4 fr) | ISRE reporter (A549-Dual [2]; 0.1 µM, irradiation: none) | ISRE reporter (A549-Dual [2]; 0.3 µM, irradiation: 8 Gy/4 fr) | ISRE reporter (A549-Dual [2]; 0.3 µM, irradiation: none) | ISRE reporter (A549-Dual [2]; 1 µM, irradiation: 8 Gy/4 fr) | ISRE reporter (A549-Dual [2]; 1 µM, irradiation: none) | ISRE reporter (A549-Dual [2]; 3 µM, irradiation: 8 Gy/4 fr) | ISRE reporter (A549-Dual [2]; 3 µM, irradiation: none) | ISRE reporter (A549-Dual [2]; 10 µM, irradiation: 8 Gy/4 fr) | ISRE reporter (A549-Dual [2]; 10 µM, irradiation: none)
C=CC(=O)Nc1cc(Nc2nccc(-c3cn(C)c4ccccc34)n2)c(OC)cc1N(C)CCN(C)C.CS(=O)(=O)O [Osimertinib mesylate] | 1.13 | 1.27 | 1.01 | 1.05 | 1.15 | 1.36 | 1.17 | 1.32 | 1.07 | 1.46 | 1.22 | 1.48 | 1.23 | 1.33 | 1.27 | 1.09 | 1.67 | 2.28 | 1.47 | 3.45
Cl.c1ccc2c(c1)CCCC2C1=NCCN1 (stereo not given) [Tetrahydrozoline HCl] | 1.16 | 0.937 | 1.26 | 0.812 | 1.04 | 0.884 | 0.995 | 1.02 | 1.12 | 0.97 | 1.15 | 0.88 | 0.994 | 0.851 | 0.93 | 0.918 | 0.936 | 1.07 | 0.955 | 0.847
Nc1cc(C(Cl)=C(Cl)Cl)c(S(N)(=O)=O)cc1S(N)(=O)=O [Clorsulon] | 1.39 | 1.25 | 1.05 | 1.73 | 1.1 | 1.79 | 1.22 | 1.35 | 1.05 | 1.09 | 1.18 | 1.29 | 1.11 | 1.24 | 1.07 | 1.17 | 1.21 | 0.979 | 1.14 | 1.09
NCCNc1ccc(NCCN)c2c1C(=O)c1ccncc1C2=O.O=C(O)/C=C\C(=O)O.O=C(O)/C=C\C(=O)O [Pixantrone Maleate] | 0.885 | 1.49 | 0.878 | 1.59 | 0.91 | 1.96 | 1.12 | 1.68 | 0.945 | 1.88 | 0.57 | 4.6 | 0.555 | 3.83 | 0.579 | 3.35 | 0.684 | 3.05 | 0.613 | 3.65
CC(=O)OC(C)OC(=O)C(C)c1ccc(-c2ccccc2)c(F)c1 (stereo not given) [Flurbiprofen Axetil] | 1.08 | 0.991 | 1.06 | 0.937 | 1.07 | 0.836 | 1.14 | 0.913 | 0.894 | 1.13 | 1.03 | 0.888 | 0.921 | 0.589 | 0.719 | 0.62 | 0.824 | 0.981 | 0.828 | 0.812
OCc1ccccc1OC1OC(CO)C(O)C(O)C1O (stereo not given) [Salicin] | 0.817 | 1.25 | 0.97 | 1.24 | 1.08 | 0.999 | 1.34 | 1.03 | 0.866 | 0.89 | 0.937 | 1.09 | 0.776 | 0.932 | 0.709 | 0.891 | 0.826 | 1.08 | 0.842 | 0.826
C#Cc1cccc(Nc2ncnc3cc(OCCOC)c(OCCOC)cc23)c1.Cl [Erlotinib HCl (OSI-744)] | 0.959 | 1.11 | 0.915 | 1.21 | 0.84 | 1.31 | 0.782 | 1.28 | 0.887 | 1.02 | 1.02 | 1.32 | 0.885 | 1.15 | 0.963 | 1.39 | 0.867 | 0.915 | 0.963 | 0.856
NC(=S)N/N=C/c1ncccc1N [Triapine] | 0.861 | 0.9 | 0.868 | 0.973 | 0.841 | 1.75 | 1.11 | 1.74 | 1.12 | 1.41 | 0.832 | 1.61 | 0.523 | 2.36 | 0.867 | 2.1 | 0.331 | 1.2 | 0.331 | 1.13
CC(=O)OC1C(=O)C2(C)C(O)CC3OCC3(OC(C)=O)C2C(OC(=O)c2ccccc2)C2(O)CC(OC(=O)C(O)C(NC(=O)c3ccccc3)c3ccccc3)C(C)=C1C2(C)C (stereo not given) [Paclitaxel] | 1.12 | 2.68 | 1.34 | 2.62 | 1.09 | 2.35 | 1.3 | 2.2 | 1.28 | 2.03 | 0.52 | 5.18 | 0.728 | 4.77 | 0.62 | 4.43 | 0.906 | 6.35 | 0.774 | 7.04
COc1cc(/C=C/C(=O)/C=C(O)/C=C/c2ccc(O)c(OC)c2)ccc1O [Curcumin] | 0.905 | 1.13 | 0.915 | 1.2 | 0.812 | 0.997 | 0.852 | 0.839 | 0.889 | 0.711 | 0.881 | 0.928 | 0.947 | 1.08 | 0.809 | 0.908 | 0.8 | 0.698 | 0.759 | 0.937
COc1ccc2cc(C(C)C(=O)[O-])ccc2c1.[Na+] (stereo not given) [Naproxen Sodium] | 0.992 | 1.35 | 0.974 | 1.52 | 1.28 | 1.21 | 1.4 | 0.946 | 0.978 | 1.02 | 1 | 0.913 | 0.927 | 1.02 | 0.81 | 1.14 | 0.913 | 0.985 | 0.954 | 0.873
Nc1nc(=S)c2[nH]cnc2[nH]1 [Thioguanine] | 0.841 | 1.07 | 0.877 | 1.01 | 0.74 | 0.919 | 0.732 | 0.716 | 0.707 | 0.711 | 0.961 | 1.02 | 0.964 | 0.986 | 0.736 | 0.868 | 0.523 | 0.743 | 0.51 | 0.937
COc1cc2c(Nc3ccc(Br)cc3F)ncnc2cc1OCC1CCN(C)CC1 [Vandetanib (ZD6474)] | 1.27 | 1.11 | 1.09 | 1.22 | 0.955 | 1.43 | 0.979 | 1.34 | 0.899 | 0.908 | 1.23 | 1.46 | 1.06 | 1.04 | 1.02 | 1.17 | 1.01 | 0.833 | 1.01 | 0.717
COc1c2occc2c(OC)c2c(=O)cc(C)oc12 [Khellin] | 1.04 | 1.54 | 0.94 | 1.4 | 1.39 | 0.984 | 1.14 | 1.18 | 0.674 | 0.952 | 1 | 1.36 | 1.01 | 0.997 | 1.09 | 0.816 | 0.619 | 0.818 | 0.69 | 0.775
CC(=O)c1c(C)c2cnc(Nc3ccc(N4CCNCC4)cn3)nc2n(C2CCCC2)c1=O.O=S(=O)(O)CCO | 0.865 | 0.877 | 0.764 | 0.965 | 0.882 | 0.942 | 0.773 | 1.11 | 0.72 | 1.28 | 0.883 | 1.56 | 0.715 | 1.56 | 0.839 | 1.69 | 0.735 | 2.56 | 0.583 | 5.05
CC1CC2C3CCC4=CC(=O)C=CC4(C)C3(F)C(O)CC2(C)C1(O)C(=O)CO (stereo not given) [Dexamethasone (DHAP)] | 0.6 | 0.841 | 0.542 | 0.88 | 0.798 | 0.797 | 0.466 | 0.674 | 0.469 | 0.904 | 0.0659 | 0.249 | 0.0521 | 0.353 | 0.0665 | 0.343 | 0.0575 | 0.243 | 0.0512 | 0.242
CC(C)C(=O)Oc1ccc(CO)cc1C(CCN(C(C)C)C(C)C)c1ccccc1.O=C(O)/C=C/C(=O)O (stereo not given) [Fesoterodine Fumarate] | 1.21 | 1.42 | 1.3 | 1.52 | 1.4 | 1.11 | 1.65 | 1.14 | 1.13 | 1.3 | 1.13 | 1.41 | 1.08 | 1.37 | 1.47 | 1.18 | 1.3 | 1.22 | 1.34 | 0.983
Nc1cccc2c1C(=O)N(C1CCC(=O)NC1=O)C2=O (stereo not given) [Pomalidomide] | 0.984 | 1.02 | 0.972 | 0.988 | 0.817 | 0.886 | 0.946 | 0.761 | 0.854 | 0.753 | 0.957 | 1.01 | 1.24 | 0.927 | 0.943 | 0.922 | 1 | 0.767 | 0.936 | 0.773
COc1cc2ncnc(Nc3ccc(F)c(Cl)c3)c2cc1OCCCN1CCOCC1.Cl [Gefitinib hydrochloride] | 1.13 | 1.37 | 0.974 | 1.16 | 0.963 | 1.54 | 0.966 | 1.22 | 0.913 | 1.14 | 1.06 | 1.42 | 1.21 | 1.07 | 1.09 | 1.07 | 1.14 | 1.03 | 1.05 | 1.36
Cc1ccc(C(C)C)cc2c(C)ccc1-2 [Guaiazulene] | 1.23 | 1.79 | 1.11 | 1.44 | 1.3 | 1.13 | 1.71 | 1.17 | 1.05 | 0.603 | 1.2 | 1.62 | 0.982 | 1.19 | 1.16 | 1.04 | 0.905 | 1.05 | 1.23 | 0.85
O=c1[nH]c(=O)n(C2CC(O)C(CO)O2)cc1F (stereo not given) [Floxuridine] | 1.16 | 1.5 | 1.72 | 1.58 | 1.31 | 1.43 | 1.4 | 1.42 | 0.996 | 1.38 | 0.684 | 2.23 | 1.04 | 2.09 | 0.638 | 1.88 | 0.642 | 1.45 | 0.694 | 1.71
O=C(O)C1CSCN1 (stereo not given) [Timonacic] | 0.997 | 1.09 | 0.731 | 0.89 | 0.858 | 1.21 | 0.803 | 1.17 | 0.934 | 0.92 | 1.02 | 1.18 | 0.798 | 0.886 | 0.876 | 1.11 | 0.859 | 0.933 | 0.902 | 0.826
COc1ccc(CC(C)(C)NCC(O)c2cc(O)cc3c2OCC(=O)N3)cc1.Cl (stereo not given) [Olodaterol hydrochloride] | 1.2 | 1.41 | 1.01 | 1.3 | 1.35 | 1.01 | 1.51 | 1.02 | 1.29 | 0.949 | 1.18 | 1.35 | 0.976 | 1.15 | 1.1 | 1.02 | 0.95 | 1.13 | 1.29 | 1.05
CCCC(=O)OC1(C(=O)CCl)C(C)CC2C3CCC4=CC(=O)C=CC4(C)C3(F)C(=O)CC21C (stereo not given) [clobetasone butyrate] | 0.702 | 1.18 | 1.22 | 0.983 | 1.46 | 0.699 | 1.36 | 0.715 | 0.499 | 0.552 | 0.0594 | 0.304 | 0.0632 | 0.24 | 0.0592 | 0.146 | 0.0567 | 0.209 | 0.0512 | 0.227
